Test results: PMC7985367, “Crystal structure of RahU, an aegerolysin protein from the human pathogen Pseudomonas aeruginosa, and its interaction with membrane ceramide phosphorylethanolamine” (Scientific Reports, 2021)

Target: T1, RahU (TEV-cleaved, structural studies) (Pseudomonas aeruginosa, UniProt Q9I710)
T1 construct: gene PA0122
Details: crystals with 0.1 M Tris/HCl pH 8.5, cryoprotectant 0.12 M Tris; cavity between B-loop and C-loop

Compound: NC(CO)(CO)CO [Tris]
- X-ray crystal structure, 1.13 Å: 6ZC1 for apo-RahU and 6ZC2 for RahU-Tris complex
